Measurements from PubChem BioAssay AID686979 (National Center for Advancing Translational Sciences (NCATS), 2013).
Screen size: about 420,000 compounds; about 50,000 (12%) were called active. The shares of active, inactive and inconclusive entries below differ from those in the screen. Calls come from the whole dose curve; as a rule, active = well fitted inhibition curve with a large enough effect; inconclusive = small, poorly fitted or top-dose-only effect; inactive = flat fitted curve, though single readings scatter. No potency is given beside an inconclusive call; the fits are too rough.

Test: qHTS for Inhibitors of human tyrosyl-DNA phosphodiesterase 1 (TDP1): qHTS in cells in presence of CPT; note: nearly all actives have a fitted effect of over 55% in size
Details: chicken DT40 Tdp1-/-;hTDP1 cells + 20 nM CPT, ATP luminescence, 48 h; activity change, negative = growth inhibition: at 46.2 µM (top of the series) unless noted
In short: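 Chicken DT40 Tdp1-/- cells complemented with human TDP1, 400 cells/well, exposed to compounds plus 20 nM camptothecin for at least 48 h at 37 C; viability read as ATP content by CellTiter-Glo luminescence.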
% is set by controls: 0 for no effect and ±100 for the full control effect; potency is the fitted concentration of half-maximal effect; tags give direction and shape of the fitted curve.

| Compound | activity change, negative = growth inhibition | Potency |
| --- | --- | --- |
| O=C(O)c1ccc2c(c1)[C@@H]1C=CC[C@@H]1[C@H](c1ccccn1)N2 | inactive: -9.39% |  |
| Cc1ccc(C(=O)Nc2ccc3oc(-c4ccc(C(C)(C)C)cc4)nc3c2)cc1 |  | inconclusive [inhibitor, single point] |
| CCOC(=O)C1CCN(C(=O)CCc2c(C)nc3cc(-c4ccc(OC)cc4OC)nn3c2C)CC1 |  | inconclusive [inhibitor, single point] |
| O=C(CNC(=S)NC(=O)c1ccc(Cl)cc1)c1ccccc1 | inactive: -6.03% |  |
| O=c1[nH]nc(Cc2ccc3ccccc3n2)c2ccccc12 |  | inconclusive [inhibitor, single point] |
| CC1CCN(c2ccc3nnc(CCC(=O)NCC(C)c4ccccc4)n3n2)CC1 (stereo unspecified) |  | inconclusive [inhibitor, single point] |
| CCOC(=O)c1cccc(NC(=O)Cn2ncc3c4ccccc4n(Cc4ccccc4)c3c2=O)c1 |  | inconclusive [inhibitor, single point] |
| CCOC(=O)C1CCN(C(=O)CC2C(=O)N(Cc3ccccc3)C(C)c3nc4ccccc4n32)CC1 (stereo unspecified) | inactive: -26.1% |  |
| COc1ccccc1N1CCN(C(=O)c2ccc3c(Cl)c4c(nc3c2)CCCC4)CC1 |  | inconclusive [inhibitor, single point] |
| COc1ccc(-c2cc3c(=O)n(CC(=O)NCc4cccnc4)ncn3n2)cc1 |  | inconclusive [inhibitor, partial curve] |
| CC(C)=CCN1CCN(Cc2cnc(-c3ccccc3)s2)CC1CCO (stereo unspecified) |  | active: 25.9 µM |
| O=C(OCC(=O)N1CCc2ccccc2C1)c1ccc(F)cc1Cl | inactive: 3.78% |  |
| CCCCNC(=O)c1ccc(-n2c(=S)[nH]c3ccccc3c2=O)cc1 | inactive: -3.14% |  |
| Cc1[nH]n(-c2ccccc2)c(=O)c1/C=N/N(c1ccccc1)c1ccccc1 |  | inconclusive [inhibitor, single point] |
| CCC(c1nnnn1C1CCCC1)N1CCN(C/C=C/c2ccccc2)CC1 (stereo unspecified) |  | inconclusive [inhibitor, single point] |
| CCc1ccc2oc(C(=O)Nc3cccc(C(F)(F)F)c3)cc(=O)c2c1 | inactive: -21.7% |  |
| Nc1c(C(=O)OCC2CCCO2)c2nc3ccccc3nc2n1-c1ccc2c(c1)OCCO2 (stereo unspecified) |  | inconclusive [inhibitor, single point] |
| Cc1cc(C(=O)CSc2nnnn2-c2ccc(O)cc2)c(C)n1C |  | inconclusive [inhibitor, single point] |
| O=C(NCc1cn(-c2ccccc2)nc1-c1ccccc1)c1ccc([N+](=O)[O-])cc1 |  | inconclusive [inhibitor, single point] |
| CCOc1ccc(S(=O)(=O)Nc2ccc(C(=O)NCC3(N4CCCCC4)CCCCC3)cc2)cc1 |  | inconclusive [inhibitor, single point] |
| COc1ccc(-c2csc(Nc3ccc(S(N)(=O)=O)cc3)n2)cc1OC |  | inconclusive [inhibitor, partial curve, poor fit] |
| Cc1cccc(C(=O)N[C@H](C(=O)Nc2ncc(C)s2)C(C)C)c1 |  | inconclusive [inhibitor, single point] |
| C#CCOc1ccc(-c2nnc(Nc3cccc(C)c3)c3ccccc23)cc1 |  | inconclusive [inhibitor, single point] |
| CCOC(=O)[C@]12CCCC=C1N(CCc1ccc(OC)c(OC)c1)C(=O)[C@H](CC(=O)NCC13CC4CC(CC(C4)C1)C3)C2 |  | active: 14.6 µM |

| Compound | activity change, negative = growth inhibition | Potency |
| --- | --- | --- |
| CC1OC(Nc2cccc3ccccc23)C(O)C(O)C1O (stereo unspecified) |  | inconclusive [inhibitor, partial curve] |
| Cc1ccc(NC(=O)c2cc(C)nc3c2c(C)nn3-c2cccc(Cl)c2C)c(C)c1 |  | inconclusive [inhibitor, partial curve] |
| Cc1ccc(NS(=O)(=O)c2ccc3[nH]c(=O)ccc3c2)cc1N(C)C |  | inconclusive [inhibitor, single point] |
| COc1ccc(S(=O)(=O)N2CCOC23CCN(S(=O)(=O)c2cccs2)CC3)cc1 |  | active: 13 µM |
| CCNC(=O)c1cc2c(=O)n3cccc(C)c3nc2n(CCc2ccccc2)c1=N |  | inconclusive [inhibitor, single point] |
| Cc1cc(NC(=O)CN2C(=O)NC3(CCCCCC3)C2=O)no1 | inactive: -16.5% |  |
| COc1ccccc1C1CN(CC(=O)N2CCC(C(O)c3ccccn3)CC2)Cc2ccccc2O1 (stereo unspecified) | inactive: -8.23% [at 9.04 µM] |  |
| COc1ccccc1C1NC(=O)NC(C)=C1C(=O)OC1CCCC(C)C1 (stereo unspecified) |  | inconclusive [inhibitor, single point] |
| O=S(=O)(c1ccccc1)N1CCN(Cc2ccccc2)c2ccccc21 |  | inconclusive [inhibitor, single point] |
| COc1cnc(-c2ccccn2)nc1N(C)C |  | inconclusive [inhibitor, single point] |
| COc1ccc(NC(=O)Nc2cccnc2)c(OC)c1 | inactive: -10.8% |  |
| CN1C(=O)c2oc3ccccc3c(=O)c2C1c1ccncc1 (stereo unspecified) |  | inconclusive [inhibitor, single point] |
| CCOc1ccc2oc(C(=O)Nc3ccc(C)cn3)c(C)c2c1 |  | inconclusive [inhibitor, single point] |
| CCN(CC(=O)Nc1ccccc1OC)C(=O)c1ccc(NS(=O)(=O)c2ccc(C(C)=O)cc2)cc1 | inactive: 0.574% |  |
| O=C(O)c1ccccc1-c1ccccc1C(=O)NNc1ccccc1 | inactive: -14.5% |  |
| CC1(C)OC1(C#N)c1ccccc1 (stereo unspecified) | inactive: 6.49% |  |
| CCC(C)c1ccc(-c2cc(C(=O)OCC(=O)Nc3cc(C)on3)c3ccccc3n2)cc1 (stereo unspecified) |  | inconclusive [inhibitor, single point] |
| Cc1nc2ccccc2n1CC(=O)NCc1ccccc1 |  | active: 9.2 µM |
| COC(=O)Cc1ccc(NC(=S)NCc2ccccc2OC)cc1 |  | inconclusive [inhibitor, partial curve] |
| CCc1ccc(/C=C2\SC(=S)N(CCCC(=O)Nc3nccs3)C2=O)cc1 |  | inconclusive [inhibitor, partial curve] |
| CC1Cc2ccccc2N1CC(=O)Nc1ccc(S(N)(=O)=O)cc1 (stereo unspecified) | inactive: -8.99% |  |
| S=c1cnc2ccccc2[nH]1 |  | inconclusive [inhibitor, partial curve] |
| COc1ccccc1CN1COc2ccc3c(oc(=O)c4ccccc43)c2C1 |  | inconclusive [inhibitor, single point] |
| O=S1(=O)CC(N2CCN(CCO)CC2)CN1Cc1ccc(F)cc1 (stereo unspecified) |  | inconclusive [inhibitor, single point] |

| Compound | activity change, negative = growth inhibition | Potency |
| --- | --- | --- |
| Fc1ccc(-c2cc3nc4c(c(N5CCOCC5)n3n2)CCCC4)cc1 |  | active: 18.4 µM |
| Cn1c(=O)[nH]c(=O)c2c1nc(N/N=C/c1cccnc1)n2Cc1ccc(Cl)cc1 | inactive: 2.87% |  |
| COc1ccc(CNC(=O)c2noc(C(C)C)c2[N+](=O)[O-])cc1 |  | inconclusive [inhibitor, single point] |
| CCOC(=O)N1CCN(C(=O)CN2C(=O)COc3ccc(S(=O)(=O)N4CCOCC4)cc32)CC1 | inactive: -0.663% |  |
| COc1cc(N(C(=O)Cc2cccs2)C(C(=O)NC2CCCCC2)c2cccc(OC)c2OC)ccc1-n1cnnn1 (stereo unspecified) |  | active: 11.6 µM |
| C=CCSc1nc2sc3c(c2c(=O)n1CC)CCC3 | inactive: -8.35% |  |
| COc1c(C)cc(C(O)c2ncc(-c3ccccc3C)[nH]2)cc1C (stereo unspecified) |  | inconclusive [inhibitor, single point] |
| CC1=CC(C)(C)N(C(=O)CSc2nnc(-c3ccccc3)o2)c2ccc(C)cc21 |  | inconclusive [inhibitor, single point] |
| CCOC(=O)c1cnc(NCc2ccccc2OC)c2ccccc12 |  | inconclusive [inhibitor, partial curve, poor fit] |
| S=C1Cc2ccccc2C(c2ccc(Cl)cc2)N1 (stereo unspecified) |  | inconclusive [inhibitor, single point] |
| COc1ccc(S(=O)(=O)N2CCCCC2)cc1C(=O)Nc1cccc(C(F)(F)F)c1 | inactive: 31.6% |  |
| CCc1nc2c(OCCOc3ccccc3)cccn2c1N(C)C(=O)c1cccs1 |  | active: 25.9 µM |
| O=S(=O)(c1cc(F)ccc1F)N1CCC2(CC1)OCCN2S(=O)(=O)c1cccs1 | inactive: -7.24% |  |
| Cc1cc(NC(=O)c2ccc(-c3ccccc3[N+](=O)[O-])o2)no1 |  | inconclusive [inhibitor, single point] |
| COc1ccccc1Nc1cc(C(=O)NC2CCCC2)c2ccccc2n1 |  | inconclusive [inhibitor, partial curve] |
| Cc1cc(C)cc(OCCCOc2cccc3cccnc23)c1 |  | active: 29.1 µM |
| CCOC(=O)c1cc2c(C)n(-c3ccc(OCC)cc3)c(C)c2ccc1=O |  | active: 25.9 µM |
| O=C(O)C1CCN(C(=O)c2ccc(Cl)cc2)CC1 | inactive: 1.13% |  |
| CCOC(=O)C1CCC(CN(Cc2ccc(Cl)cc2)S(=O)(=O)c2ccc(F)c(C(=O)Nc3cccc(F)c3)c2)CC1 (stereo unspecified) | inconclusive: -28.9% [inhibitor] |  |
| O=C(O)c1ccc(S(=O)(=O)NC2CCCCC2)cc1 | inactive: -17.3% |  |
| Cc1cccc(NC(=O)CSc2nnc(-c3ccco3)o2)c1 | inactive: 1.75% |  |
| CCN(CC)C(=O)c1sc2c(c1C)c(=O)n(Cc1ccccc1)c(=O)n2Cc1ccc(Cl)cc1 |  | inconclusive [inhibitor, single point] |
| CN=C1S/C(=C\c2cc(C)n(-c3ccccc3F)c2C)C(=O)N1C |  | active: 14.6 µM |
